# Assay results as given in ChEMBL document CHEMBL4888484, “Replenishing the malaria drug discovery pipeline: Screening and hit evaluation of the MMV Hit Generation Library 1 (HGL1) against asexual blood stage Plasmodium falciparum ,using a nano luciferase reporter read-out” (2022).
# Hit rate of the full screen: of about 150,000 compounds, about 540 (0.36%) showed an effect of 50% or more. The list shows a part of the results.
# Tested on: Plasmodium falciparum
# Test: Primary screen in NF54 nanoGlo assay, in single point, at 2uM, 72h; a lower Z score goes with more inhibition
# Format: functional, Erythrocyte
# Conditions: timepoint 72 hour
Compound,% Inhibition,Z score
Cc1cc(C(=O)NCc2nc3ccccc3s2)c(C)o1,35%,-0.66
CCc1ccccc1C(=O)NCc1ccccc1CN1CC[C@H](O)C1,-9%,0.92
CCC(=O)N(CCN1CCOCC1)Cc1csc(COc2ccccc2C)n1,-5%,0.49
CN(C)c1ncc(CNCc2cccnc2Oc2ccccc2)s1,-8%,1.15
Cc1nc(-c2cc(S(=O)(=O)N3CCC(C(=O)N4CCCCC4)CC3)c(C)s2)no1,2%,-0.29
Cc1ccoc1CNC(=O)N1CC[C@H](O)[C@@H](C2CCCC2)C1,2%,-0.25
O=C([C@@H]1CC=CCC1)N1CC(COc2ccccc2)C1,-4%,0.62
CCOCn1nc(C)c(CC(C)C(=O)NC(CC)CC#N)c1C (stereo not drawn),-7%,1.26
COc1ccc(Cl)cc1[C@H](C)NCc1nncn1C1CC1,-13%,2.01
O=C(O)c1cnn2cc(CN3CCN(c4ccccc4F)CC3)cnc12,-13%,1.6
O=C(COc1ccc(F)cc1)N1CC(OCc2ccc(F)cc2Cl)C1,-12%,1.07
COc1ccc(C(=O)N(CC(=O)N(Cc2ccco2)C[C@H]2CCCO2)C(C)(C)C)cc1,-7%,1.15
CCCc1nc(NCCc2cc(O)nc(C)n2)c2cnn(C)c2n1,-12%,1.3
Cc1ccc(-c2noc(-c3c(N)sc4c3CC[C@H](C)C4)n2)cc1,-3%,0.38
O=C(Nc1nc2c(s1)Cc1ccccc1-2)c1cc2ccccc2o1,-12%,2.33
Cc1oc(-c2ccccc2)nc1Cn1c(C(=O)c2ccc(Cl)cc2)nc2ccccc21,-5%,0.65
Cc1ccc2c(CC(=O)N3CCO[C@H]4COCC[C@H]43)c[nH]c2c1,6%,-1.12
O=C1NCCOCCN(C(=O)Cc2cccc(F)c2)[C@H]2CCC[C@@H]12,-13%,1.85
COc1ccc(F)cc1C(=O)CN1C(=O)NC2(CCCCCCC2)C1=O,-26%,3.54
CC1CC(c2nc(C3(C)CCCCO3)no2)CCO1 (stereo not drawn),5%,-1.03
Clc1ccc(Cn2ccc(-c3ccc4c(c3)OCO4)n2)cc1Cl,-4%,0.51

Compound,% Inhibition,Z score
CCc1ccc(CN2CCC[C@H](CNC(=O)c3ccncn3)C2)nc1,-10%,0.95
CC1COCC(C)N1CC(O)COCC1=CCC2CC1C2(C)C (stereo not drawn),-3%,0.33
O=C1C[C@@H](c2ccccc2)N(CC2CCCCC2)CCCCCCN1,-6%,0.87
CC(C)(C)c1ccnc(N[C@H]2CO[C@H]3[C@@H]2OC[C@@H]3NC(=O)COc2ccccc2)n1,16%,-1.87
O=C1CN(c2ccc(Br)cc2)S(=O)(=O)c2ccccc2N1,-7%,0.83
O=C(C1CCN(S(=O)(=O)Cc2cccc(Cl)c2)CC1)N1CCN(c2ccccc2)CC1,-2%,0.37
CN1CCN(C(=O)c2cnc(-c3cc(Cl)cc(Cl)c3)nc2O)CC1,12%,-1.52
Cc1conc1CN1CCN(c2cccc3[nH]cnc23)CC1,-19%,2.19
CC(C)(CNC1CCN(c2ccc(-c3cscn3)cc2)CC1)N1CCCC1,-9%,1.22
C=C(C)C(C)(C)C(=O)NC1CCC(F)C1 (stereo not drawn),-14%,1.9
Cc1cc(N[C@H]2C[C@@H](c3nnc(CN(C)C)n3C)C2)nc(C)c1C#N,-13%,2.24
CCCNC(=O)c1c(NC(=O)c2ccc3c(c2)c(C)c(C)n3Cc2ccccc2)cnn1C,36%,-5.26
CCc1nc(N2CCC[C@H](CCC(=O)NCc3ccccc3Cl)C2)no1,-3%,0.27
Cn1ccc(CCC(=O)N(C)[C@H]2CC[C@H](O)CC2)n1,-8%,1.14
Cc1cnccc1CN(C)Cc1cc2n(n1)CCNC2,30%,-3.82
Cc1noc(C)c1[C@H](C)NC(=O)CN1CCOc2ccc(Cl)cc21,1%,-0.11
Cn1cncc1C(=O)N1CCC(Cc2nc(C(C)(C)C)cs2)CC1,-13%,1.83
N#Cc1cc(F)c(NCCOC[C@H]2CCCO2)c(F)c1,-2%,0.29
O=C(CCn1cnnc1)N(CCO)Cc1cccs1,-8%,0.94
CC(=O)N(C[C@H]1CCCN1C(=O)c1cncc(OC(C)C)c1)C1CC1,1%,-0.1
C/C(=C\c1ccccc1)CN1CCN(c2ncccn2)CC1,9%,-1.35

Compound,% Inhibition,Z score
CCOC(=O)c1nccc(NC(CO)C(O)C2CCCCC2)n1 (stereo not drawn),-5%,0.94
COc1ccc(C(=O)N2CCC3(CC2)OC[C@@H](C(=O)NCc2ccc4c(c2)OCO4)N3C(=O)c2ccccc2)cc1,-11%,1.22
COC(=O)[C@@]1(Cc2ccccc2)N[C@@H](c2cccnc2)[C@H]2C(=O)N(C)C(=O)[C@H]21,-4%,0.78
COCCOCCOCCCNC(=O)c1cc(F)cc(Br)c1,-8%,0.98
CC[C@H](NC(=O)N1CCCC2(CCCCCC2)C1)c1nnc2n1CCCCC2,-23%,4.13
O=C(c1ccnnc1)N1CCn2nc(C(=O)N3CCCC3)cc2C1,-2%,0.42
CCc1cccc(NC(=O)CN2CCn3nnc(-c4nc(-c5ccccc5)no4)c3C2=O)c1,-15%,2.21
O=C(NCCc1ccc(=O)[nH]c1)C1(c2cc(F)cc(F)c2)CCCC1,-2%,0.25
O=C(NC1CCCCCC1)c1csnn1,3%,-0.31
CC(C)CC1(NC(=O)[C@H]2CCCN(C3CCN(Cc4ccncc4)CC3)C2)CC1,-20%,2.16
CN(Cc1ccccc1)C(=O)Cn1cccc1-c1nc(-c2cccc(Cl)c2)no1,1%,-0.19
COc1cc2ccc3c(CCN(C)C(=O)c4c(OC)cccc4OC)cc(OC)c(OC)c3c2cc1OC,6%,-0.71
CON(C)c1cc(C)nc(-c2cccs2)n1,-6%,1.18
O=C(NC1CC1c1ccc(F)cc1)N1CCN(c2ccccc2O)CC1 (stereo not drawn),-7%,1.5
Cc1noc(C)c1CCN1CCC[C@H](n2cc(CO)nn2)C1,-4%,0.48
O=C(Nc1cccc(S(=O)(=O)N2CCOCC2)c1)c1cc(S(=O)(=O)N2CCCCC2)ccc1Cl,-16%,1.6
CCOc1ccc(S(=O)(=O)N2CCN(c3cc(C)nc(N4CCOCC4)n3)CC2)cc1,-12%,2.05
CC(C)(C)c1cccc(CN[C@@H]2CC(C(=O)O)C[C@@H]2n2ccnn2)c1 (stereo partly drawn),1%,-0.1
CCn1nc(C)cc1C(=O)NC[C@H](O)c1ccc(OC(F)F)cc1,-10%,1.06
O=C(c1cc(F)c[nH]1)N1CCN(C(=O)c2cc(F)c[nH]2)[C@@H]2CCCC[C@H]21,27%,-1.86
Cc1nc(C)c(C(=O)N2CC3CC=CCC3C2)s1 (stereo not drawn),-7%,1.06

Compound,% Inhibition,Z score
CO[C@H]1CCCN(C2CCN(c3cccc(-c4cscn4)c3)CC2)C1,1%,-0.13
CCOC(=O)CCNC(=O)N1CCC(N2CC3(CCCC3)[C@H]2c2ccccc2)CC1,-2%,0.36
O=C(NCc1cc2n(n1)CCCN(Cc1cccc3ccccc13)C2)C1CCC1,-18%,1.65
O=C(NCC1(O)CCC1)Nc1ccc(COCc2ccccc2)cc1,1%,-0.22
C#CCN(c1nccs1)S(=O)(=O)c1sccc1OC,-9%,1.31
COc1ccc(N2CCN(C(=O)C3CC3c3ccco3)CC2)cc1 (stereo not drawn),-6%,0.91
Cc1ccc(CN2CCNC(=O)[C@@H]2Cc2nc(-c3cccnn3)no2)cc1,-10%,1.84
O=C(c1nnc(-c2ccccc2)o1)C1CC1,-10%,1.47
CC(C)(CN)Cc1ccc(Br)cc1,-14%,1.9
CC(C)C(O)CNC(=O)C(C)n1ccnc1-c1ccccc1 (stereo not drawn),-1%,0.13
O=C(Cc1ccccc1)NCCN1CC[C@H](N2CCCCCC2)C1=O,7%,-0.84
C[C@@H]1[C@@H](c2cccc(F)c2)OCCN1C(=O)c1ccc(C(=O)O)cc1,-6%,0.97
O=C(c1ccc(C(F)(F)F)cc1O)N1CCCC1C1CCCO1 (stereo not drawn),0%,0.02
Cn1cnnc1-c1cncc(NC(=O)[C@H](C2CC2)N2CCCC2)c1,-7%,1.08
CNC(=O)Cc1noc(Cc2nc(-c3ccccc3)oc2C)n1,-26%,3.11
COc1ccccc1CC(=O)Nc1ccc2c(c1)NC(=O)[C@H](C)O2,-11%,2.07
O=S(=O)(Nc1ncn(-c2ccccc2)n1)c1cnc2ccc(F)cc2c1,-45%,5.31
Cn1nnc2c(=O)n(Cc3cccc(F)c3)cnc21,-11%,1.65
Cc1ccc(-c2nn(C)c(=O)c3c2CCCC3)cc1S(=O)(=O)N1CCN(C)CC1,2%,-0.25
C[C@H]1c2ccc(Cl)n2CCN1CC(=O)NCCOc1ccccc1,-10%,1.83
CCc1nc(N2CCC[C@H](CCC(=O)Nc3ccc(OC)cc3C)C2)no1,7%,-0.84
